# Source: patent US20230287093A1
# Biological target: Fc receptors of THP-1 cells (primarily CD32 (FcγRII) and CD64 (FcγRI))
# Assay: cell-based or functional assay
# Parameters: unit not given beside the values
binder,measurement,value
HuPT-113D IgG4 (II) (antibody) heavy: QVQLVQSGAEVKKPGASVKVSCKASGYTFTSYWIHWVRQAPGQGLEWIGVIDPSDSYTRYNQKFKGRVTMTVDTSTSTAYMELRSLRSDDTAVYYCTTWEVDYWGQGTTVTVSSASTKGPSVFPLAPCSRSTSESTAALGCLVKDYFPEPVTVSWNSGALTSGVHTFPAVLQSSGLYSLSSVVTVPSSSLGTKTYTCNVDHKPSNTKVDKRV[… human IgG4 Fc with S228P (EU numbers) …] light: DIVMTQSPLSLPVTPGEPASISCRSSQSLVHSDGNTYLHWYLQKPGQSPQLLIYKVSNRFSGVPDRFSGSGSGTDFTLKISRVEAEDVGVYYCSQSTHVPWTFGGGTKVEIKRTVAAPSVFIFPPSDEQLKSGTASVVCLLNNFYPREAKVQWKVDNALQSGNSQESVTEQDSKDSTYSLSSTLTLSKADYEKHKVYACEVTHQGLSSPVTKSFNRGEC,"EC50 of cytokine induction in THP-1 cells, as a multiple of that of HuPT-113D IgG1 (II) (times higher than IgG1)",< 30
